About 2,200 (0.71%) of roughly 310,000 compounds showed an effect of 50% or more. The effect is printed as a negative number. The list shows a part of the results.
Molecular target: human ether-à-go-go-related gene (hERG) potassium channel (human, UniProt Q12809)
Experiment: primary screen, population patch clamp on CHO cells stably expressing hERG

human ether-à-go-go-related gene (hERG) potassium channel, sequence (Q12809 whole entry, looked up): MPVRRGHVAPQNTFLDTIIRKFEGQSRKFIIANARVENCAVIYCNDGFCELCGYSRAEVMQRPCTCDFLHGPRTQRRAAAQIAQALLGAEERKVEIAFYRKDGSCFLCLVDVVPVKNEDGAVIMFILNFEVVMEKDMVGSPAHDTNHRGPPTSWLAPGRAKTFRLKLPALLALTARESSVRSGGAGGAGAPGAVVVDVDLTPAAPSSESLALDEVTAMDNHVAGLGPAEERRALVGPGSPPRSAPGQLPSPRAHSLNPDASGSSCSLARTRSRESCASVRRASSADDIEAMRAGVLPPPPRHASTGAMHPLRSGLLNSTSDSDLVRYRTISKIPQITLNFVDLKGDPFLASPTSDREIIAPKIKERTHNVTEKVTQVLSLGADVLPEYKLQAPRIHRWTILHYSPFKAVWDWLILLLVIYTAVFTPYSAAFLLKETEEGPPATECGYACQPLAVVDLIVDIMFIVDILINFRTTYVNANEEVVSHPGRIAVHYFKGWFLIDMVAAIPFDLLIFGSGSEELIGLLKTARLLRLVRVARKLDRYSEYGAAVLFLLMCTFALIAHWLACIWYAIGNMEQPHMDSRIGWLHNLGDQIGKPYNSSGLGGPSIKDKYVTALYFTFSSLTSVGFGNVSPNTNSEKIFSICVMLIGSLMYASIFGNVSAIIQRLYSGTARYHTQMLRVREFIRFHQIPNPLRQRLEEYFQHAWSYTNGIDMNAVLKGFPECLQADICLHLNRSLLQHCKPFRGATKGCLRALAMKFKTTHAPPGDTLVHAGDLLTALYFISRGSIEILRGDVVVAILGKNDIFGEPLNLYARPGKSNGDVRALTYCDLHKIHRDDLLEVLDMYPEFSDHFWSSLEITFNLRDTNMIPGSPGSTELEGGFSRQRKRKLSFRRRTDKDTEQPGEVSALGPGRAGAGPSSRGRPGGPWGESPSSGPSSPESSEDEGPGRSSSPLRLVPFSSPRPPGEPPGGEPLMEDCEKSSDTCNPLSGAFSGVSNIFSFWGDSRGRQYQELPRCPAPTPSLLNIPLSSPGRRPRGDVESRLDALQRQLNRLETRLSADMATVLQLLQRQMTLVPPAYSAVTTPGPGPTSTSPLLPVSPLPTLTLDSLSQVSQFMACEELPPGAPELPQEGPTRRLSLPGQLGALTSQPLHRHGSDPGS

SMILES | hERG current change (%, negative = inhibition) at 1uM [%]
Nc1ccccc1C#Cc1cnccn1 | 12
CC1CN(CCCCOc2ccc(F)cc2)CC(C)O1.O=C(O)C(=O)O (stereo not shown) | -4.39
NC(=O)COC(=O)c1ccccc1Oc1ccccc1 | 12.1
Cc1cc(Sc2nc(NC(C)C)nc(NC(C)C)n2)nc(Cl)n1 | -14
COc1ccc(C(C)C)cc1S(=O)(=O)Nc1ncn[nH]1 | 23.7
O=C(OCC1CC(c2ccccn2)=NO1)c1ccc(Br)cc1 (stereo not shown) | 10.8
COC(=O)C(NC(C)=O)(Nc1ccc(Br)cc1)C(=O)OC | 21.5
O=C(Nc1ccccc1Cl)NC1CCCCCCC1 | 12.5
Cc1cccc(CNC(=O)c2ccc(NC(=O)C3=CSCCO3)cc2)c1 | -1.21
COc1ccc(C)cc1CN1C(=O)c2ccccc2C1=O | 17.9
O=c1ccc2cc(S(=O)(=O)N3CCN(c4ccc(Cl)cc4)CC3)ccc2o1 | -14.3
CCOc1ccccc1NC(=O)C(OC(=O)c1ccc(N(C)C)cc1)c1ccccc1 (stereo not shown) | 7.83
Cc1nc2sc3c(c2c(=O)[nH]1)CCCC3 | 4.41
COc1ccc(C(=O)NC(=S)Nc2ccccc2N2CCOCC2)cc1Br | 11.9
Cc1cccc2nc(-c3ccccc3)nc(N[C@@H](CO)c3ccccc3)c12 | 7.16
COC(=O)c1cn(NC(=O)c2ccncc2)c(=O)c2ccccc12 | 5.07
O=[N+]([O-])c1ccc(N2CCCC2)cc1N/N=C1\CN2CCC1CC2 | 9.77
O=C(NCCOc1ccc(F)cc1)C1CCC(=O)N(CCN2CCOCC2)C1 (stereo not shown) | 6.52
Cc1ccc(N2CC(C(=O)Nc3nnc(SCC(=O)N4CCOCC4)s3)CC2=O)cc1 (stereo not shown) | 15.1
COc1ccc(N=CC2=C(O)CC(c3ccccc3)CC2=O)c(OC)c1 (stereo not shown) | 7.88

SMILES | hERG current change (%, negative = inhibition) at 1uM [%]
Cc1nn2c(C(F)(F)F)c3c(nc2c1-c1ccccc1)CCC3 | 12.7
COC(=O)C(NC(C)=O)(Nc1cccc(C)n1)C(F)(F)F (stereo not shown) | 10.5
O=C(Nc1nc2ccc(C(=O)N3CCCCC3)cc2s1)C1CCCCC1 | 11.3
O=C(COC(=O)C1CCC1)NCc1ccccc1Cl | 20.3
CC1(C)CC(=O)C(C=NCC(O)c2ccccc2)=C(O)C1 (stereo not shown) | 9.1
Cc1csc(NC(=O)CN2C(=O)c3ccccc3C2=O)c1C(N)=O | 8.69
CCN(CCCNC(=O)Cn1ncc2c([nH]c3ccc(C)cc32)c1=O)Cc1ccccc1 | 3.19
O=S(=O)(c1ccc(NC(=S)NN=C2CCCCC2)cc1)N1CCOCC1 | 6.83
CCc1nn(CC(=O)NCCCN(CC)c2cccc(C)c2)c(=O)c2cc3occc3n12 | 9.35
COC(=O)c1cc(OC)c(OC)cc1NC(=S)N1CCN(Cc2ccccc2)CC1 | 9.85
COc1ccccc1NC(=O)CSc1nnc(COc2ccccc2OC)n1C | -1.07
CCn1c(SCC(=O)N2CCN(C(=O)c3ccco3)CC2)nnc1C(C)C | 14.4
Cc1noc(C)c1C(=O)OCC(=O)NC1CC1 | 4.21
CC(C)N(Cc1ccco1)/N=C/c1c(O)n(Cc2ccccc2)c(=O)[nH]c1=O | 6.32
CCCCn1c(=O)n(CC(O)c2ccccc2)c(=O)c2c1ncn2C1CCCC1 (stereo not shown) | -7.81
O=c1ccc(-c2ccc(S(=O)(=O)NCC3CCN(Cc4ccccc4F)CC3)s2)n[nH]1 | -22.1
O=S(=O)(c1ccc2c(c1)N(Cc1ccc(Cl)cc1)C1CCCN21)N1CCOCC1 (stereo not shown) | 5.03
Cc1ccc(C)c(NS(=O)(=O)c2ccc3[nH]c(=O)[nH]c3c2)c1 | 10.9
Cc1cc(C)n2nc(C(=O)OCC(=O)Nc3ccc(F)cc3F)nc2n1 | 18.4
COc1cccc(/C=C2\N=C(SC)SC2=O)c1OC | 4.18

SMILES | hERG current change (%, negative = inhibition) at 1uM [%]
CCOC(=O)Cc1c(C)nc2c(-c3ccc(Cl)cc3)c(C)nn2c1C | 12.6
CN(C)CCCn1c(SCc2c(Cl)cccc2Cl)nnc1-c1ccncc1.O=C(O)C(=O)O | 7.97
O=C(NCCCN1CCOCC1)/C(=C/c1ccc(F)cc1)NC(=O)c1ccccc1 | -46.5
O=C(c1cc([N+](=O)[O-])ccc1N1CCOCC1)N1CCN(c2ccccc2)CC1 | 7.19
CCc1cc2c(SCC(=O)c3cccs3)ncnc2s1 | 12.6
CC(CN1CCOCC1)C(=O)c1ccccc1.Cl (stereo not shown) | 18.1
Cn1nnnc1CCOCCc1nnnn1C | 3.65
CCOC(=O)[C@@H]1[C@H]2COc3cc(OC)ccc3[C@H]2N2C(=O)N(c3ccc(F)cc3)C(=O)[C@@]12C | 12
CCOC(=O)Cn1c(=O)oc2cc(S(=O)(=O)NCCc3ccc(C)cc3)ccc21 | 4.25
COc1ccc(C(C(N)=O)c2ncc(C(F)(F)F)cc2Cl)cc1OC (stereo not shown) | -2.83
COc1nc(OC)nc(N2CCC(C(=O)NC3CCCCCC3)CC2)n1 | 10.1
O=C(NC(=S)NNS(=O)(=O)c1ccc(Cl)cc1)c1cccnc1 | 13.6
O=[N+]([O-])c1ccc(-c2csc(N3CCCCCC3)n2)cc1 | 11.8
Cc1cc(C)nc(SCc2ccc(C(=O)O)o2)n1 | 12.6
O=C1CC2(CCN(C(=O)COc3ccc(Cl)cc3)CC2)Oc2ccccc21 | -70.4
COc1cc(C)ccc1OCCOc1c(Cl)cc(Cl)cc1Cl | 5.65
O=C(Nc1ccc(S(=O)(=O)Nc2ncccn2)cc1)c1cccnc1 | 13
C=CCSc1nnc(-c2ccncc2)n1-c1ccc(OCC)cc1 | -2.13

— paper PMC4336329 (PLoS ONE, 2015)
